Reference: PubChem BioAssay AID488969 (Vanderbilt High Throughput Screening Facility, 2010)
Over roughly 110,000 compounds, “z-score” has its median near -0.1; the highest 2% begin near 2. The list shows a part of the results. Activity calls are given as the source filed them.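 The calls were made as follows: active = z-score in the third read window above 3 or below -3; inactive = the rest.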

target: Metabotropic glutamate receptor 8 (Rattus norvegicus) (UniProt P70579); experiment: mGluR8 Gi/Go-coupled signaling modulation – cell-based, rat, thallium flux, HTS, primary screen (AID 488969); conditions: HEK293 rat mGluR8, GIRK (G protein-gated inwardly rectifying potassium channel) thallium flux, FluoZin2; at 10 µM; stronger effect = higher value; submaximal glutamate (EC20) added with thallium
Chain of UniProt P70579 (P70579 whole entry, looked up): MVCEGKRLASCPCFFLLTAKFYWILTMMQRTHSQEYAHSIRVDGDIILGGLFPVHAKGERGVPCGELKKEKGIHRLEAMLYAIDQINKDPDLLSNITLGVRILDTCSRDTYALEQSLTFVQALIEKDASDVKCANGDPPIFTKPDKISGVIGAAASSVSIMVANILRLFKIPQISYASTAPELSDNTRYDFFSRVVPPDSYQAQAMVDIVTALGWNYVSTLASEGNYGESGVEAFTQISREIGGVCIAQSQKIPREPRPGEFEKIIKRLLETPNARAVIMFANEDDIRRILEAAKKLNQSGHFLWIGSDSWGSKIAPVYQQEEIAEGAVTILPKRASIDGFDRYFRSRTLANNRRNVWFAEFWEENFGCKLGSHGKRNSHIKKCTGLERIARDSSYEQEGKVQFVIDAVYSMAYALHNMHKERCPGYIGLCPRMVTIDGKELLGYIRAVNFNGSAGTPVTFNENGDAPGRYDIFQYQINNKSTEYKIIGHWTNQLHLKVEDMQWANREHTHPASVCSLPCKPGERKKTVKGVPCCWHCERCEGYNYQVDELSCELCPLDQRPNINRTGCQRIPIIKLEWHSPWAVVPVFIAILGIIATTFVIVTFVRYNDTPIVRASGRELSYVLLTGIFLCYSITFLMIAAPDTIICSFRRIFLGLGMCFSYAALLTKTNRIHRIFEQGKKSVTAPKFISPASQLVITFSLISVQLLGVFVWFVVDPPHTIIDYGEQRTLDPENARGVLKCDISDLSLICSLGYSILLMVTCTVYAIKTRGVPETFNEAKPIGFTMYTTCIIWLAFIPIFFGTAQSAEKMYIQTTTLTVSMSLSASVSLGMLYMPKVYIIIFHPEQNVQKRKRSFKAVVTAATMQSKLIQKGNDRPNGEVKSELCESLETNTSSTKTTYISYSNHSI

| SMILES | z-score |
| --- | --- |
| CCOc1ccc(CN2C(=O)c3ccccc3C2C(=O)NCc2cccnc2)cc1 (stereo not given) | -0.086 |
| COc1cc2c(cc1NC(=O)c1ccco1)CCCC2 | -0.397 |
| O=C(Nc1nc2c(s1)CCCC2)c1cccc(S(=O)(=O)N2CCCc3ccccc32)c1 | -0.0686 |
| O=C(CS(=O)(=O)c1cn(Cc2ccc(F)cc2)c2ccccc12)N1CCCCC1 | -0.178 |
| O=C(CSCc1ccccc1)N/N=C/c1cc2c(cc1Br)OCO2 | -0.2 |
| O=C(CN1C(=O)c2cccc3cccc1c23)Nc1ccc(S(=O)(=O)N2CCOCC2)cc1 | -0.376 |
| CCCc1cc(=O)[nH]c(-n2[nH]c3c(c2=O)CCCC3)n1 | -0.412 |
| O=S(=O)(/N=C(/c1ccc(Cl)cc1)N1CCOCC1)c1ccc(Cl)cc1 | -0.196 |
| O=C(NCCOc1ccccc1)c1n[nH]c(=O)c2ccccc12 | -0.471 |
| O=C1C(=O)N(Cc2cccnc2)C(c2ccccn2)/C1=C(/O)c1ccc(F)cc1 (stereo not given) | -0.0829 |
| CC(CN1CCCCC1)OC(=O)c1ccc2c(c1)OCO2 (stereo not given) | 1.49 |
| COc1cccc(OC)c1OCCCOc1ccc([N+](=O)[O-])cc1Cl | -0.353 |
| COC(=O)c1nc(NC(=O)c2ccccc2Cl)n[nH]1 | 0.32 |
| CC1CC(=O)C2=C(C1)Nc1ccccc1N=C2 (stereo not given) | 0.512 |
| COC(=O)C1=C(C)NC2=C(C(=O)CC(c3cccs3)C2)C1c1ccsc1 (stereo not given) | -0.448 |
| COC(=O)c1ccc(OC(=O)C2CC(=O)N(c3ccc(C)cc3C)C2)cc1 (stereo not given) | -0.403 |
| C=CCN1C(=O)c2oc3ccccc3c(=O)c2C1c1ccc(O)c(OC)c1 (stereo not given) | -0.251 |
| COc1cc(NS(=O)(=O)c2ccc(N/C=C\C(=O)c3ccc(F)cc3)cc2)nc(OC)n1 | 0.107 |
| Cc1ccc(Nc2nc(CSc3nnc(-c4cccnc4)n3-c3ccccc3C)cs2)cc1 | -0.962 |
| C#CCn1c(S(=O)(=O)Cc2ccc(OC)cc2)nc(-c2ccccc2)c1-c1ccccc1 | -0.243 |
| COc1cc(C(C(=O)NC2CCCCC2)N(Cc2cccs2)C(=O)Cc2c[nH]c3ccccc23)cc(OC)c1OC (stereo not given) | -0.263 |
| O=C(COc1ccccc1O)N1CCN(C(=O)c2ccco2)CC1 | -1.24 |
| CC(C)CNC(=S)Nc1ccc(Oc2ccccc2)cc1 | 2.69 |
| CCOC(=O)Cc1nn2c(=O)cc(C)nc2s1 | -0.16 |
| CN1CCN(CC(=O)N2c3ccccc3C(C)(c3ccc(Cl)cc3)CC2(C)C)CC1 (stereo not given) | active: 3.21 |
| S=C(c1cn(CCOc2ccccc2)c2ccccc12)N1CCCC1 | 0.0222 |
| CCCn1c(SCC(=O)NCCc2ccccc2)nnc1-c1ccco1 | -0.175 |
| CCc1ccc(Nc2nc3ccccc3c(=O)s2)cc1 | 2.82 |

| SMILES | z-score |
| --- | --- |
| Cc1ccc(-n2ncc3c(=O)n(CC(=O)NC4CCCCC4)cnc32)cc1 | 0.35 |
| COc1ccc2oc(-c3cccc(NC(=O)CSc4ccc(Cl)cc4)c3)nc2c1 | -0.12 |
| CCCN1C(=O)/C(=N\OCC(=O)Nc2ccc(C(C)C)cc2)c2ccccc21 | -0.00981 |
| O=C1N2CCSC2=NC1(Nc1ccccn1)C(F)(F)F (stereo not given) | 0.113 |
| Cc1nnc(SCCn2c(N(C)Cc3ccccc3)nc3c2c(=O)[nH]c(=O)n3C)s1 | -0.534 |
| O=C(O)C1CCCN1c1ncnc2ccccc12 (stereo not given) | 0.93 |
| O=C(NCc1cccs1)C1CCCN(S(=O)(=O)c2cnc[nH]2)C1 (stereo not given) | 0.111 |
| COc1ccc(S(=O)(=O)N(CC(=O)NCc2ccco2)c2ccccc2)cc1 | -0.522 |
| COc1ccc(C(NC(=O)c2c(F)c(F)c(F)c(F)c2F)c2ccccc2)cc1 (stereo not given) | -0.423 |
| CCCOc1ccc(/C=N/Nc2ccccc2[N+](=O)[O-])c(OCCC)c1 | 0.276 |
| Cc1[nH]c2ccccc2c1C1=NNC(=Nc2ccc(F)cc2)SC1 | 0.418 |
| CC(C)(Nc1ccccc1)C(=O)c1ccccc1 | 0.0928 |
| NC(=O)C1(N2CCCCC2)CCN(c2ccc3nnc(-c4ccccc4)n3n2)CC1 | -0.501 |
| O=C(/C=C/c1ccccc1)N1c2ccccc2Sc2ccc(C(F)(F)F)cc21 | -0.0208 |
| Cc1ccc(S(=O)(=O)N=Nc2c(O)[nH]c3ccccc23)cc1C | 0.107 |
| COc1ccc(CCn2c(C)ccc2C)cc1OC | -0.0502 |
| Cc1ccc2cc(C3CC(c4ccco4)=NN3S(=O)(=O)c3ccccc3)c(Cl)nc2c1 (stereo not given) | 0.136 |
| Cc1ccc(C)c(NC(=O)c2ccc(OC(=O)c3ccco3)cc2)c1 | 0.873 |
| Cn1c(CN2CCOCC2)nnc1SCC(=O)Nc1nccs1 | -0.0781 |
| COc1ccc(C(=O)NN2CCCCC2)cc1OC | -0.242 |
| O=C(CCCCCN1C(=O)c2ccccc2C1=O)Nc1ccc(F)cc1 | -0.0499 |
| CCCOC(=O)C1=C(C)OC23OC(N)=C(C#N)C12C(=O)c1ccccc13 (stereo not given) | -2.16 |
| Cc1[nH]c2ccccc2c1C(=O)COC(=O)c1c(-c2ccccc2)noc1C | -0.266 |
| O=C(CCC(=O)c1cccs1)NCc1ccc(Cl)cc1 | -0.139 |
| O=C(COC(=O)C12CC3CC(CC(C3)C1)C2)NCCCc1ccccc1 | -0.0873 |
| COc1ccc(S(=O)(=O)N(C)CC(=O)Nc2ccc3c(c2)OCCO3)cc1OC | -0.0274 |
| O=C(NCCCN1CCCCC1)C1CCC(=O)N1CCc1ccccc1 (stereo not given) | -0.0886 |
